Where two headings read alike, the source gives them in different places.
Assays:
cucumber Fusarium wilt [1] = tested on: cucumber Fusarium wilt
Experimental: Soil Disease Prevention Test (Cucumber Fusarium Wilt)
Seeds of pot-cultivated test plants (Sagamihanpaku) were sown to an inoculated soil which was adjusted so that cucumber Fusarium wilt spores were 1×10^5 per 1 g of soil. At the time of sowing, the solution of wettable powders containing the compound of the present invention dissolved in water was drenched into the soil at the rate of 10,000 g/ha. The disease severity was observed 3 weeks after treatment. Tests were carried out in duplicate.
Here, the disease severity of the test plants was observed by the naked eyes, judged in accordance with the following criteria, and expressed (in 4 levels of 0 to 3 in which the disease severity of the untreated plants was 3).

cucumber Fusarium wilt [2] = tested on: cucumber Fusarium wilt; remark: listed apart in the source
Experimental: (§1) Seed Treatment Test (Cucumber Fusarium Wilt)
10 g of moistened seeds of test plants (cultivar of cucumber: Sagamihanpaku) were coated with wettable powders containing the compound of the present invention so as the application rate to be 0.1% a.i. The seeds (10 grains) treated by the above method were sown in the soil inoculated with cucumber Fusarium wilt (1×10^5 spores), and the disease severity was observed after 3 weeks. Tests were carried out in duplicate.
(§2) Here, the disease severity of the test plants was observed by the naked eyes and evaluated in accordance with the following criteria, and expressed (in 4 levels of 0 to 3 in which the disease severity of the untreated plants was 3).

wheat Fusarium blight = tested on: wheat Fusarium blight
Experimental: 20 g of moistened seeds (seeds inoculated with wheat Fusarium blight) of test plants (Nourin 61 gou) were coated with wettable powder containing the compound of the present invention so as the application rate to be 0.1% a.i. The seeds (30 grains) treated by the above method were sown, and the disease severity was observed after 2 weeks. Tests were carried out in duplicate.
as §2

cucumber Fusarium wilt [3] = tested on: cucumber Fusarium wilt; remark: listed apart in the source
Experimental: as §1
10 g of moistened seeds (seeds inoculated with cucumber Fusarium wilt) of test plants (Sagamihanpaku) were coated with wettable powders containing the compound of the present invention so as the application rate to be 0.1% a.i. The seeds (10 grains) treated by the above method were sown and the disease severity was observed after 3 weeks. Tests were carried out in duplicate.
as §2

[4] = cucumber (Sagamihanpaku), inoculated soil 1×10^5 spores per 1 g, soil drench at sowing 10,000 g/ha, observed 3 weeks after treatment, untreated = 3
[5] = cucumber (Sagamihanpaku) seeds coated 0.1% a.i., sown in soil inoculated with cucumber Fusarium wilt (1×10^5 spores), observed after 3 weeks, untreated = 3
[6] = wheat (Nourin 61 gou) seeds inoculated with wheat Fusarium blight, seed coating 0.1% a.i., observed after 2 weeks, untreated = 3
[7] = cucumber (Sagamihanpaku) seeds inoculated with cucumber Fusarium wilt, seed coating 0.1% a.i., observed after 3 weeks, untreated = 3

Measured: disease severity

CC1(C)N=C(c2cnc3ccccc3c2)c2cccc(F)c2C1(C)C [Compound No. 1-866, 3-(5-fluoro-3,3,4,4-tetramethyl-3,4-dihydroisoquinolin-1-yl)quinoline]
0: cucumber Fusarium wilt [1]; in vivo | cucumber Fusarium wilt [2]; in vivo | wheat Fusarium blight; in vivo | cucumber Fusarium wilt [3]; in vivo

CC1(C)N=C(c2cnc3c(F)cccc3c2)c2cccc(F)c2C1(C)C [Compound No. 1-918, 8-fluoro-3-(5-fluoro-3,3,4,4-tetramethyl-3,4-dihydroisoquinolin-1-yl)quinoline]
0: cucumber Fusarium wilt [1]; in vivo | cucumber Fusarium wilt [2]; in vivo | wheat Fusarium blight; in vivo | cucumber Fusarium wilt [3]; in vivo

Cc1cccc2cc(C3=NC(C)(C)C(C)(C)c4c(F)cccc43)cnc12 [Compound No. 1-919, 3-(5-fluoro-3,3,4,4-tetramethyl-3,4-dihydroisoquinolin-1-yl)-8-methylquinoline]
0: cucumber Fusarium wilt [1]; in vivo | cucumber Fusarium wilt [2]; in vivo | wheat Fusarium blight; in vivo | cucumber Fusarium wilt [3]; in vivo

CC1(C)N=C(c2cnc3ccccc3c2)c2ccccc2C1(F)F [Compound No. 1-929, 3-(4,4-difluoro-3,3-dimethyl-3,4-dihydroisoquinolin-1-yl)quinoline]
0: cucumber Fusarium wilt [1]; in vivo | cucumber Fusarium wilt [2]; in vivo | wheat Fusarium blight; in vivo | cucumber Fusarium wilt [3]; in vivo

CC1(C)N=C(c2cnc3ccccc3c2)c2cccc(F)c2C1(F)F [Compound No. 1-930, 3-(4,4,5-trifluoro-3,3-dimethyl-3,4-dihydroisoquinolin-1-yl)quinoline]
0: cucumber Fusarium wilt [1]; in vivo | cucumber Fusarium wilt [2]; in vivo | wheat Fusarium blight; in vivo | cucumber Fusarium wilt [3]; in vivo

CC1(C)c2c(F)cccc2C2(c3cnc4ccccc4c3)ON2C1(C)C (stereo not drawn) [Compound No. 2-100, 5-fluoro-3,3,4,4-tetramethyl-8b-quinolin-3-yl-4,8b-dihydro-3H-oxazireno[3,2-a]isoquinoline]
0: cucumber Fusarium wilt [1]; [4] | cucumber Fusarium wilt [2]; [5] | wheat Fusarium blight; [6] | cucumber Fusarium wilt [3]; [7]

CC1(C)N2OC2(c2cnc3ccccc3c2)c2cccc(F)c2C1(F)F (stereo not drawn) [Compound No. 2-135, 4,4,5-trifluoro-3,3-dimethyl-8b-quinolin-3-yl-4,8b-dihydro-3H-oxazireno[3,2-a]isoquinoline]
0: cucumber Fusarium wilt [1]; [4] | cucumber Fusarium wilt [2]; [5] | wheat Fusarium blight; [6] | cucumber Fusarium wilt [3]; [7]

CC1(C)c2c(F)cccc2C(c2cnc3ccccc3c2)=[N+]([O-])C1(C)C [Compound No. 3-100, 3-(5-fluoro-3,3,4,4-tetramethyl-2-oxido-3,4-dihydroisoquinolin-1-yl)quinoline]
0: cucumber Fusarium wilt [1]; in vivo | cucumber Fusarium wilt [2]; in vivo | wheat Fusarium blight; in vivo | cucumber Fusarium wilt [3]; in vivo

CC1(C)[N+]([O-])=C(c2cnc3ccccc3c2)c2cccc(F)c2C1(F)F [Compound No. 3-135, 3-(4,4,5-trifluoro-3,3-dimethyl-2-oxido-3,4-dihydroisoquinolin-1-yl)quinoline]
0: cucumber Fusarium wilt [1]; in vivo | cucumber Fusarium wilt [2]; in vivo | wheat Fusarium blight; in vivo | cucumber Fusarium wilt [3]; in vivo
